From PubChem BioAssay AID652104 (National Center for Advancing Translational Sciences (NCATS), 2013)
The campaign covered roughly 410,000 compounds. About 7,200 (1.8%) were called active. The shares of active, inactive and inconclusive entries below differ from those in the screen. The call rests on the fitted dose curve; in most records, active means well fitted activation curve with a large enough effect; inconclusive means small, poorly fitted or top-dose-only effect, or another doubt; inactive means no such curve, though single readings can be large or run the other way. No potency is given beside an inconclusive call; the fits are too rough.

Experiment: qHTS of TDP-43 Inhibitors; further: nearly all actives have a fitted effect of over 50% in size; on growth rescue (activation): % of control where 0% means no effect
Settings: TDP-43 expressing yeast growth rescue, BacTiter-Glo, 24 h; growth rescue (activation): at 46.1 µM (top of the series) unless noted
In short: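 Yeast cells expressing TDP-43 under galactose induction are exposed to compounds for 24 hr at 30 deg C. BacTiter-Glo luminescence measures growth, so protective compounds score as activators.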
Potency means the concentration at half of the fitted maximal effect; tags describe the fitted curve by direction and shape.

Which Potency does the source give for O=C(COc1ccc(CO)cc1Cl)Nc1ccc(F)cc1 here?
The Potency was inconclusive [activator, single point].

For CC(=O)c1cccc(NC(=O)CCn2nc(C)c(S(=O)(=O)N3CCCCC3)c2C)c1, which Potency is on record?
The Potency was “inactive”.

With Cc1ccc(OCC(=O)NCC(=O)OCc2cc(=O)n3nc(CC(C)C)sc3n2)cc1 as the molecule, how does the Potency read?
Its Potency is “inactive”.

With CCCn1nc(NC(C)=O)c2cc3cccc(C)c3nc21 as the molecule, how does the Potency read?
Its Potency is inconclusive [activator, partial curve].

With O=C(NCCc1ccc(Cl)cc1)c1cnc2sc(N3CCCC3)nn2c1=O as the molecule, how does the Potency read?
The Potency was inconclusive [activator, partial curve].

For Cc1ccc(NC(=O)c2sc(Cl)nc2-c2ccccc2)cc1, which Potency is on record?
Its Potency is inconclusive [activator, partial curve].

With CC(=O)Nc1nnc(-c2ccc3c(c2)CCCC3)o1 as the molecule, how does the Potency read?
The Potency was active: 31.6 µM.

For COc1ccc(-c2nc(N)n(C(=O)c3ccccc3Cl)n2)cc1, which Potency is on record?
Its Potency is inconclusive [activator, single point].

Which Potency does the source give for CC(C)CCOc1ccc(C2CC(=O)N(C)C2=O)cc1 (stereo not given) here?
Its Potency is inconclusive [activator, partial curve, poor fit].

Which Potency does the source give for CCC1CCCCN1C(=O)c1cc(COc2ccc(-n3cncn3)cc2)on1 (stereo not given) here?
Its Potency is inconclusive [activator, partial curve].

For COc1ccc(-n2cccc2/C=C2\C(=N)N3N=C(C(C)C)SC3=NC2=O)cc1, which Potency is on record?
The Potency was inconclusive [activator, single point].

For Cc1ccc(NC(=O)c2nc(S(=O)(=O)Cc3ccc(F)cc3)ncc2Cl)cc1C, which Potency is on record?
The Potency was inconclusive [activator, partial curve].

With O=C(NC1CCCCCCC1)c1cc(-c2ccccn2)nc2ccccc12 as the molecule, how does the Potency read?
The Potency was inconclusive [activator, full curve, poor fit].

Which Potency does the source give for C=CCn1cccc(C(=O)Nc2ccc(F)cc2)c1=O here?
Its Potency is inconclusive [activator, partial curve].

With Clc1cccc(COn2c(-c3ccc(Cl)cc3Cl)nc3ncccc32)c1 as the molecule, how does the Potency read?
The Potency was inconclusive [activator, single point].

Which Potency does the source give for Cc1ccc2oc(=O)c3cnn(CC(=O)N4CCN(c5cccc(Cl)c5)CC4)c3c2c1 here?
Its Potency is “inactive”.

For CCOc1ccccc1C(=O)N1CCC(n2nnc3cc(C(F)(F)F)ccc32)CC1, which Potency is on record?
The Potency was inconclusive [activator, single point].

For CCOC(=O)c1cnn(-c2nc(OCC)cc(OCC)n2)c1C, which Potency is on record?
The Potency was inconclusive [activator, single point].

For CC(C)N1CC2(CC(c3ccccc3F)=NO2)CN1C(=O)c1ccco1 (stereo not given), which Potency is on record?
Its Potency is “inactive”.

For O=C1NCC2(CCN(CCc3ccccc3)CC2)O1, which Potency is on record?
The Potency was inconclusive [activator, partial curve, poor fit].

For COc1ccc(OC)c(CN2CCN(Cc3ccc(OC)c(OC)c3OC)CC2)c1, which Potency is on record?
Its Potency is “inactive”.

With Cc1cc(C)nc(SCc2ccc([N+](=O)[O-])cc2)n1 as the molecule, how does the Potency read?
The Potency was inconclusive [activator, partial curve].

With CSCC[C@H](NC(=O)c1cc([N+](=O)[O-])ccc1Cl)c1nc2ccccc2[nH]1 as the molecule, how does the Potency read?
The Potency was inconclusive [activator, partial curve].

With CC1CCN(c2ccc(C(=O)O)cc2)CC1 as the molecule, how does the Potency read?
Its Potency is inconclusive [activator, partial curve].

For CCN(CC)C(=O)c1cccc(-c2csc(C(O)(c3ccccc3)C(F)(F)F)n2)c1 (stereo not given), which Potency is on record?
The Potency was inconclusive [activator, partial curve, poor fit].

With Cn1c(OCC2CCCO2)nc2cc(-c3ccccc3)sc2c1=O (stereo not given) as the molecule, how does the Potency read?
The Potency was active: 35.5 µM.

With COc1ccc(-c2noc(CCC(=O)N3CCN(c4cccc(OC)c4)CC3)n2)cc1 as the molecule, how does the Potency read?
Its Potency is inconclusive [activator, partial curve].

Which Potency does the source give for COCCNC(=O)c1cc2c(=O)n3cccc(C)c3nc2n(Cc2ccncc2)c1=N here?
Its Potency is inconclusive [activator, partial curve].

For O=C(N/N=C/C=C/c1ccc([N+](=O)[O-])cc1)C1COc2ccccc2O1 (stereo not given), which Potency is on record?
The Potency was “inactive”.

For COc1cccc(C(C)(O)c2nc(/C=C/c3ccccc3)cs2)c1 (stereo not given), which Potency is on record?
Its Potency is active: 25.1 µM.

With COc1ccccc1CCNC(=O)CCn1c(=O)oc2ccccc21 as the molecule, how does the Potency read?
Its Potency is inconclusive [activator, single point].

For O=C(Nc1ccc(Cl)cc1)N1CCC(c2nc(-c3cccs3)no2)CC1, which Potency is on record?
The Potency was inconclusive [activator, single point].

For CC1CCCCN1C(=O)c1ccc(C(=O)Nc2ccc(F)cc2)cc1 (stereo not given), which Potency is on record?
The Potency was inconclusive [activator, partial curve].

Which Potency does the source give for O=C(NC1CCCC1)c1ccccc1OCc1ccccc1 here?
Its Potency is active: 20 µM.

With CCOC(=O)c1cccc(NS(=O)(=O)c2ccc(-c3coc(C)n3)cc2)c1 as the molecule, how does the Potency read?
The Potency was active: 35.5 µM.

For CCOc1ccc(CN2C(=O)C(=O)c3cccc(C)c32)cc1OC, which Potency is on record?
Its Potency is inconclusive [activator, single point].

Which Potency does the source give for Cc1cccc(Nc2cc(C)nc(-n3nc(C)cc3C)n2)c1 here?
Its Potency is “inactive”.

Which Potency does the source give for Cc1ccccc1CSCC(=O)NCCSc1ccccn1 here?
The Potency was inconclusive [activator, single point].

For O=C1c2ccsc2SCCN1Cc1ccc(F)cc1, which Potency is on record?
The Potency was inconclusive [activator, partial curve].

Which Potency does the source give for Cc1ccc(Nc2nc3ccccc3nc2-n2nc(C)cc2C)c(Cl)c1 here?
The Potency was “inactive”.

For CC(Oc1ccc(Cl)cc1Cl)C(=O)NC(=S)N1CCc2ccccc21 (stereo not given), which Potency is on record?
Its Potency is inconclusive [activator, partial curve, poor fit].

For CCc1cccc(N2C(=O)CS(=O)(=O)C23C(=O)N(Cc2ccccc2)c2ccc(C)cc23)c1 (stereo not given), which Potency is on record?
Its Potency is “inactive”.

With CCOc1ccccc1C(=O)NCC(=O)N(C)Cc1ccccc1C as the molecule, how does the Potency read?
The Potency was inconclusive [activator, single point].

Which Potency does the source give for O=C1CC(N2CCN(c3ccccc3Cl)CC2)C(=O)N1c1cccc(F)c1 (stereo not given) here?
The Potency was active: 12.6 µM.

With CSc1ccc(CNC(=O)c2sc3ncnc(N(C)C4CCCCC4)c3c2C)cc1 as the molecule, how does the growth rescue (activation) read?
Its growth rescue (activation) is inactive: 10.6% [at 9.22 µM].
